Test results taken from ChEMBL document CHEMBL4888484, “Replenishing the malaria drug discovery pipeline: Screening and hit evaluation of the MMV Hit Generation Library 1 (HGL1) against asexual blood stage Plasmodium falciparum ,using a nano luciferase reporter read-out” (2022).
Screen size: about 150,000 compounds; about 540 (0.36%) showed an effect of 50% or more. The list shows a part of the results.

Each compound was assayed on Plasmodium falciparum (assay: Primary screen in NF54 nanoGlo assay, in single point, at 2uM, 72h; a lower Z score goes with more inhibition). Details: timepoint 72 hour.
Format: functional, Erythrocyte

Row | Structure (SMILES) | % Inhibition [%] | Z score
1 | O=C(NC1(c2ccccc2)COC1)c1cc(OCC(F)F)ccn1 | 4 | -0.81
2 | COc1ccc(NC(=O)c2c([O-])n(-c3ccc(OC)cc3)n[n+]2CCN2CCCCC2)cc1 | -7 | 1.12
3 | O=C(c1cscn1)N1CC[C@H]2C(=O)N(Cc3ccccc3)CC(=O)N2CC1 | -7 | 0.91
4 | NC(C(=O)NC1CC1c1ccccc1F)c1cccc(Cl)c1 (configuration not stated) | -5 | 0.56
5 | Cc1ccsc1C(=O)Nc1cc(S(=O)(=O)N2CCOCC2)ccc1N1CCOCC1 | -1 | 0.14
6 | C[C@H](NS(=O)(=O)c1ccc(F)cc1)c1nnc2n1CCCCC2 | 6 | -0.9
7 | Cc1cnccc1C(=O)NC1CCS(=O)(=O)CC1 | 2 | -0.27
8 | Cc1oc(CNC(=O)c2ccccc2F)nc1C(=O)N1CCCC1 | -11 | 1.39
9 | Oc1ccc(Br)cc1-c1nc2cnccn2c1NC1CCCCC1 | 32 | -1.65
10 | CN=C(NCc1ccccc1)NC1CC1 | -7 | 0.97
11 | COc1ccc(NC(=O)N2CCCC[C@H]2c2noc(COCC3CC3)n2)c(C)c1 | -8 | 1.05
12 | O=C(c1c[nH]c2ccccc2c1=O)N1CCS(=O)(=O)C[C@H]1C1CC1 | -6 | 1.01
13 | CCOc1cc(CC#N)cc(Br)c1OC(F)F | -16 | 3.12
14 | COCC(=O)N[C@H]1CO[C@@H](CN2CCC(F)(F)C2)[C@@H]1O | -7 | 1.05
15 | O=C(CN1CCn2nc(-c3ccccc3)cc2C1=O)N1CCOCC1 | -3 | 0.46
16 | COc1ccc(-c2n[nH]c(C(F)(F)F)n2)c(OC)n1 | -11 | 1.45
17 | Cc1nc[nH]c1C(=O)NCc1cccnc1N1CCCCCCC1 | -17 | 1.68
18 | Cn1c2c(cc(-c3ncnn3Cc3ccccc3)c1=O)CCCC2 | 2 | -0.24
19 | CC(C)S(=O)(=O)NC1CCCCCC1 | -11 | 2.26
20 | CN(Cc1ccsc1)C(=O)CN1CCc2cncnc2C1 | 2 | -0.23
21 | O=C(Nc1cc[nH]n1)[C@H](Cc1ccccc1)n1cnnn1 | -11 | 1.46
22 | COCCN(CCOC)c1cc(C)ncn1 | -11 | 1.33

Row | Structure (SMILES) | % Inhibition [%] | Z score
23 | CC1(C)NC(=O)N(CCN2CCC[C@H](c3n[nH]c(C4CCCCC4)n3)C2)C1=O | 14 | -1.54
24 | c1cnc(N2CCC[C@H](c3nc(-c4cc5ccccc5o4)no3)C2)nc1 | -14 | 1.44
25 | COc1cc(C)c(S(=O)(=O)N2CCc3cc4ccccc4nc32)cc1C | -10 | 1.11
26 | CCn1c(=O)c2nscc2n(CC(=O)Nc2ccc(C)cc2)c1=O | 2 | -0.22
27 | Cc1cccc(NC(=O)Cn2nnc(-c3ccc4c(c3)OCO4)n2)c1C | -1 | 0.13
28 | CN(C)c1nc(CNc2nnc(C(F)(F)F)s2)cs1 | 3 | -0.39
29 | CC1CC(C)CN(S(=O)(=O)c2ccc(C(=O)Nc3nc4c(s3)CCCC4)cc2)C1 (configuration not stated) | -13 | 2.3
30 | Cn1cc([C@H]2OCC[C@@H]2CNC(=O)NCC2CCc3ccccc3CC2)cn1 | -2 | 0.22
31 | Cc1noc(C)c1Cn1cc2c3c(cccc31)[C@H](CC(C)C)N[C@H](C(=O)N1CCN(C)CC1)C2 | -10 | 1.31
32 | CC(C)c1nccc(N2CCCC[C@@H]2CC(=O)O)n1 | -17 | 3.29
33 | CC[C@H](C)Cc1nc(-c2ccc(Cn3cccn3)o2)n(CC(C)(C)O)n1 | -11 | 1.62
34 | COc1ccc(CC(=O)N2CCc3nc(N4CCC(C)CC4)nc(Oc4cccc(OC)c4)c3C2)cc1 | -7 | 1.1
35 | O=C(c1nnc(N2CCC(C3CCOC3)C2)n1CC1CCOC1)N1CCCC1 (configuration not stated) | -7 | 1.28
36 | Cc1ccc(C(=O)Nc2ccccc2OCC2CC2)c(=O)[nH]1 | -3 | 0.51
37 | CCOc1cc([C@H]2C(C(N)=O)=C(C)Nc3nc(C)nn32)ccc1OCc1ccccc1 | -6 | 0.92
38 | COc1cc(Cl)c(C)cc1NC(=O)C[C@H]1CCCCN(C)C1=O | -15 | 2.81
39 | c1csc(-c2ncn(Cc3nnc4n3CCCCC4)n2)n1 | 2 | -0.42
40 | CN(C)c1nc(CCC2CCN(C(=O)c3cc(C4CC4)[nH]n3)CC2)no1 | -8 | 1.31
41 | CC(C)c1ccc(O)c(NC(=O)c2nc(-n3cnnc3)ccc2Br)c1 | -4 | 0.52
42 | O=C(Cn1ncn2nc3c(c2c1=O)CCCC3)Nc1ccccc1F | -7 | 0.89
43 | Cc1nn(C)c(OCCC2CCCC2)c1C | -9 | 1.02
44 | OCc1ccc(-c2nccn2[C@H]2COC[C@@H]2N2CCCCC2)o1 | -22 | 3.1

Row | Structure (SMILES) | % Inhibition [%] | Z score
45 | NS(=O)(=O)c1ccc(CCNC(=O)c2nc(N3CCCCC3)ncc2Cl)cc1 | -14 | 2.88
46 | Cc1noc(C2CCN(C(=O)[C@@H]3Cc4cc(Cl)ccc4O3)CC2)n1 | -1 | 0.08
47 | Cc1ccccc1OCC(=O)N1Cc2cncnc2C1 | -4 | 0.68
48 | Cc1ccccc1CNC(=O)Cn1cc(-c2ccccc2)sc1=O | 4 | -0.84
49 | COc1ccc(C)cc1-c1nn(CC(C)C)cc1C(=O)NC[C@H]1Cc2ccccc2O1 | -14 | 2.25
50 | O=C(NCc1ccccn1)c1cc(C(F)(F)F)cc(C(=O)Nc2ccccc2)n1 | 39 | -1.13
51 | COCC1(CNS(=O)(=O)N2CCC(C)(C)CC2)CCCC1 | -10 | 1.8
52 | O=C(c1cc2c(s1)CCOC2)N1CCC2(CCC2)C1 | -13 | 1.47
53 | O=C1C2C(Cc3ccc(O)cc3)NC3(C(=O)Nc4ccccc43)C2C(=O)N1c1cccc(Cl)c1 (configuration not stated) | -4 | 0.57
54 | C=CC[C@H](C)NC(=O)Nc1ccnn1C | -3 | 0.45
55 | Cc1noc(C)c1CN(C)C(=O)Nc1ccc2c(cnn2C)c1 | -10 | 0.94
56 | CN(C)CCNC(=O)c1ccc2c(c1)nc1n2CCCC1 | 6 | -1.1
57 | CC(=O)Nc1ccc(C)cc1-c1nc2ccccc2n(CC(=O)N2CCc3ccccc32)c1=O | 4 | -0.62
58 | COc1cc(-c2nc3cnccn3c2NC2CCCCC2)ccc1O | -7 | 0.85
59 | CN(Cc1ccccc1)C(=O)C(C)(C)C | 1 | -0.06
60 | O=C1NCCn2cnc(C(F)(F)F)c21 | -4 | 0.41
61 | Cc1cc(CN(C)Cc2cc(CN(C)C)cs2)on1 | -2 | 0.32
62 | Cn1nc(C(C)(C)C)c2[nH]c([C@H]3CCOC(C)(C)C3)nc21 | -2 | 0.31
63 | O=C(Nc1ccncc1)c1ccc2ccccc2n1 | 37 | -1.72
64 | COc1ncc(NS(=O)(=O)c2ccc(C)s2)cn1 | -11 | 2.12
65 | O=C(CC1CCCN1)NC(c1ccc(F)cc1)C1CCCC1 (configuration not stated) | -4 | 0.66
66 | Cc1nc(C(=O)NCCc2c[nH]cn2)c(-c2ccc(F)cc2)s1 | -10 | 1.82

Row | Structure (SMILES) | % Inhibition [%] | Z score
67 | c1ccc(-c2nsc(N3CCC(c4nn[nH]n4)CC3)n2)cc1 | -17 | 3.16
68 | CC(=O)N1CCOc2ccc(CCC(=O)NCCC(C)C)cc2C1 | -13 | 1.88
69 | COc1nc(-c2cccc(C(=O)NCCCN3CCOCC3)c2)nn1C | -5 | 0.93
70 | CC(=O)Nc1ccc2nc(NCc3cc(C#N)n(C)c3C)sc2c1 | 4 | -0.45
71 | CC(C)n1ncc(C(=O)N(CCc2ccccc2)c2ccccc2)c1N | -7 | 1.27
72 | CC1CCN(C(=O)Nc2cnn(C(C)(C)C)c2)C(c2ccco2)C1 (configuration not stated) | -10 | 1.7
73 | COc1nc2c(cc1CNC(=O)[C@@H]1CCCN1C)C(=O)N(C1CCCC1)C2 | -10 | 1.46
74 | O=C(NC[C@H]1CC(=O)N(C2CC2)C1)c1cccc2ccnn12 | -6 | 0.98
75 | Cc1ccc(-c2ccnc3c(C(=O)NCCc4ccccn4)cnn23)cc1C | -16 | 2.38
76 | CNC(=O)[C@H](C)Oc1cccc(OC)c1 | -16 | 1.49
77 | COc1cccc(CN2CC=C(C(=O)N3CCN(c4ccccc4)CC3)CC2)c1 | -11 | 1.75
78 | Cc1noc(C2CN(C(=O)C3(O)CCCC3)C2)n1 | 1 | -0.25
79 | COc1ccc(C)cc1NC(=O)Cn1nc(N(C)C)c2ccccc2c1=O | 2 | -0.33
80 | COc1ccc(CN(C(=O)c2scc(C)c2Cl)c2ccncc2)cc1 | 1 | -0.15
81 | CC(C)CCN(Cc1c(-c2ccccc2)noc1N1CCCCC1)C(=O)c1ccccc1F | -15 | 1.98
82 | CC[C@@](C)(CC(=O)O)NC(=O)CCc1ccsc1 | 2 | -0.23
83 | O=C(Nn1cnnc1)c1cccc2c(=O)c3ccccc3[nH]c12 | -9 | 1.2
84 | OCCN1CCN(CCCc2cccc3ccccc23)CC1 | -5 | 0.73
85 | C[C@H](Nc1ncc(F)c(N(C)C)n1)c1ccc2c(c1)OCCO2 | -5 | 0.69
86 | Cc1nccn1CCC(=O)N1C[C@H]2CC[C@@H](C1)N(Cc1ccccn1)C2=O | -12 | 2.27
